{"source": "the supplement of paper PMC11369174", "about": "“Proteome-scale characterisation of motif-based interactome rewiring by disease mutations” (Molecular Systems Biology, 2024)", "experiment_in_all_cases": "mutation enrichment score (mutant vs wild-type peptide binding to bait); baits are purified protein domains named by gene / domain / UniProt id / residues; peptides come from disordered regions of human proteins; higher = mutation enhances binding relative to wild type", "key": {"[1]": {"target": "CREBBP_NCBD__Q92793_2062_2109", "details": "number of wild-type / mutant comparisons summed (bounds the score): 5; paper call: no_effect; wild-type window: …"}, "[2]": {"target": "T1, PEX14_Pex14__O75381_16_84", "T1 chain": "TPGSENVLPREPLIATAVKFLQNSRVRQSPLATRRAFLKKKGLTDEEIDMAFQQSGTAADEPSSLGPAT", "details": "number of wild-type / mutant comparisons summed (bounds the score): 6; paper call: no_effect; wild-type window: …"}, "[3]": {"target": "T2, CSK21_Pkinase__P68400_1_335", "T2 chain": "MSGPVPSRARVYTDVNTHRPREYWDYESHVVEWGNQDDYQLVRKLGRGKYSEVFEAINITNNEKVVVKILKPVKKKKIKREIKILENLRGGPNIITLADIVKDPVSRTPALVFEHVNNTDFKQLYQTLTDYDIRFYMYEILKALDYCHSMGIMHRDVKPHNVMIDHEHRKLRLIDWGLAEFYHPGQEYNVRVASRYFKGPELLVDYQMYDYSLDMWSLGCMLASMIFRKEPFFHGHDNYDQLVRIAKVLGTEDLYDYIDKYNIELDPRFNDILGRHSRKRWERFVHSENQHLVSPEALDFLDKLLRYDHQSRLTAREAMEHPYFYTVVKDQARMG", "details": "number of wild-type / mutant comparisons summed (bounds the score): 6; paper call: no_effect; wild-type window: …"}, "[4]": {"target": "T3, CLTC_Clathrin-propeller__Q00610_1_364", "T3 chain": "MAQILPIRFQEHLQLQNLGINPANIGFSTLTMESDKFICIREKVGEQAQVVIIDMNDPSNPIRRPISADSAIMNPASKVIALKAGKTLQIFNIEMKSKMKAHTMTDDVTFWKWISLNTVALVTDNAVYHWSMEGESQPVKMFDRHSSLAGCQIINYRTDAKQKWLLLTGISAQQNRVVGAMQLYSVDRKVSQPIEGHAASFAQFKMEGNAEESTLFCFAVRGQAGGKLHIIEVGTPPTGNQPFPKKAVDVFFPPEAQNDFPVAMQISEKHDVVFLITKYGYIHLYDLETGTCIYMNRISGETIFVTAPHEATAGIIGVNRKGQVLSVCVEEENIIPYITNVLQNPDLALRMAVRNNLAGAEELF", "details": "number of wild-type / mutant comparisons summed (bounds the score): 18; paper call: diminished; wild-type window: …"}, "[5]": {"target": "T4, ZMYND11_coiled-coil-MYND__Q15326_480_602", "T4 chain": "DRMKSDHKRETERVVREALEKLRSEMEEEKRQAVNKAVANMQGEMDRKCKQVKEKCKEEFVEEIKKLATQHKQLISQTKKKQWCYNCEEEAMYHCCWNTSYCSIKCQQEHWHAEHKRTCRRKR", "details": "number of wild-type / mutant comparisons summed (bounds the score): 6; paper call: no_effect; wild-type window: …"}, "[6]": {"target": "T5, Bub1_TPR__O43683_1_150", "T5 chain": "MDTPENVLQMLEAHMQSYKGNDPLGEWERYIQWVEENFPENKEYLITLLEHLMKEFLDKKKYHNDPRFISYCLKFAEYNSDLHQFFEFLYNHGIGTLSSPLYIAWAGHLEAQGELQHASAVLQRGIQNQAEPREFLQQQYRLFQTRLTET", "details": "number of wild-type / mutant comparisons summed (bounds the score): 6; paper call: no_effect; wild-type window: …"}, "[7]": {"target": "T6, EPHA3_Pkinase__P29320_606_947", "T6 chain": "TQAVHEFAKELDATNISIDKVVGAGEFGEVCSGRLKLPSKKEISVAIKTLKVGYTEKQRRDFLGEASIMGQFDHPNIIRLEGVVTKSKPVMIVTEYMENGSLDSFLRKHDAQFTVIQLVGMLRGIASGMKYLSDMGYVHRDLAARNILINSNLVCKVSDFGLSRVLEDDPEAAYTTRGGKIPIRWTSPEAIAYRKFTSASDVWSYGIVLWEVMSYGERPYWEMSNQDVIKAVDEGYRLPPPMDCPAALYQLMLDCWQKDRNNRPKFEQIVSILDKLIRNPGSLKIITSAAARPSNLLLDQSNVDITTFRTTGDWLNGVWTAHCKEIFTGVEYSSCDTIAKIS", "details": "number of wild-type / mutant comparisons summed (bounds the score): 6; paper call: no_effect; wild-type window: …"}, "[8]": {"target": "T7, EPHB2_Pkinase__P29323_604_898", "T7 chain": "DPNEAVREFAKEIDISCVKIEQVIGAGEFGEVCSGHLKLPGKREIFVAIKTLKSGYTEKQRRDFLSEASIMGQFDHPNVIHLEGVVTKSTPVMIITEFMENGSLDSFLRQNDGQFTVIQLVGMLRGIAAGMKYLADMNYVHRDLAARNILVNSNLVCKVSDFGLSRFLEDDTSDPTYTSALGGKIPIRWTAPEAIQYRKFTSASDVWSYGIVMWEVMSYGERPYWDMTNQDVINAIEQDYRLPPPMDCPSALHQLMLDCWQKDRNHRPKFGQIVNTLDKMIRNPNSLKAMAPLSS", "details": "number of wild-type / mutant comparisons summed (bounds the score): 6; paper call: no_effect; wild-type window: …"}, "[9]": {"target": "T8, CHD1_tandem-chromo__O14646_268_443", "T8 chain": "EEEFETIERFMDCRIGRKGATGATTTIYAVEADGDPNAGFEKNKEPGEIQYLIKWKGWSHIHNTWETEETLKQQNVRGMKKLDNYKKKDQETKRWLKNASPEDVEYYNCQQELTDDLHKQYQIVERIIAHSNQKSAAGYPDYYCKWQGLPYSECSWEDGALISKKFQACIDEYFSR", "details": "number of wild-type / mutant comparisons summed (bounds the score): 5; paper call: no_effect; wild-type window: …"}}, "note": "This is one part of the list. This is a noisy data set.", "data": [{"binder": "IIPPPPPICPDSLDDADALGGMLISWYMSGYHTGYYMGFRQ", "note": "[S262G S262G]", "values": [{"measurement": "mutation enrichment score", "setting": "[1]", "result": -3}, {"measurement": "mutation enrichment score", "setting": "[2]", "result": -2.3}]}, {"binder": "IIPPPPPICPDSLDDADALGIMLISWYMSGYHTGYYMGFRQ", "note": "[S262I S262I]", "values": [{"measurement": "mutation enrichment score", "setting": "[1]", "result": -3}]}, {"binder": "PGTFLLRFSESSKEGGVTFTLVEKDISGKTQIQSVEPYTKQ", "note": "[W623L W623L]", "values": [{"measurement": "mutation enrichment score", "setting": "[3]", "result": -3}]}, {"binder": "MDPALQMANTLPVSGNLIDLCGNQGLPPPGLTISNSCPANL", "note": "[Y265C Y265C]", "values": [{"measurement": "mutation enrichment score", "setting": "[4]", "result": -9.8}, {"measurement": "mutation enrichment score", "setting": "[5]", "result": -0.68}]}, {"binder": "IAPRRGHDNTGVTDRVVNQLPTQLDGVEGLQGVYVLAATSR", "note": "[L965P L965P]", "values": [{"measurement": "mutation enrichment score", "setting": "[3]", "result": -3}]}, {"binder": "ASNLLALSVLAGARQGGSHTLSSFLTFLCGLVLTDFLGLLV", "note": "[R60L R60L]", "values": [{"measurement": "mutation enrichment score", "setting": "[6]", "result": 3}]}, {"binder": "PPGTFLLRFSESSKEGGVTFIWVEKDISGKTQIQSVEPYTK", "note": "[T622I T622I]", "values": [{"measurement": "mutation enrichment score", "setting": "[3]", "result": -3}]}, {"binder": "VLSSELPEDDRELFEDLLRQVSDLRLQANWNRAEEENEFQI", "note": "[M330V M330V]", "values": [{"measurement": "mutation enrichment score", "setting": "[6]", "result": -5}]}, {"binder": "PLQQQQVLSILHANPQLLAAVIKQRAAKYANSNPQPIPGQP", "note": "[F2084V F2084V]", "values": [{"measurement": "mutation enrichment score", "setting": "[3]", "result": -4}, {"measurement": "mutation enrichment score", "setting": "[7]", "result": -3}, {"measurement": "mutation enrichment score", "setting": "[8]", "result": -3}]}, {"binder": "PEHFPFPAPANAPLQRIRSTATPNVHMVSTTAPMDSNLIQL", "note": "[S214A S214A]", "values": [{"measurement": "mutation enrichment score", "setting": "[9]", "result": -1.4}]}, {"binder": "PEHFPFPAPANAPLQRIRSTFTPNVHMVSTTAPMDSNLIQL", "note": "[S214F S214F]", "values": [{"measurement": "mutation enrichment score", "setting": "[9]", "result": -4}]}]}
